# Reference: patent US5652213A, “Cyclic peptide antifungal agents” (Eli Lilly and Company, priority 1996, dated 1997)
# At least one peptide structure holds a part that was inferred or is arguable (an end, a ring closure or a residue).
# Experiments:
# C. albicans [1] = experiment: Effective dose for controlling a systemic fungal infection (C. albicans) in vivo in mice; conditions: mouse, i.p.
# C. albicans [2] = experiment: Minimal inhibitory concentration against C. albicans (standard agar dilution or disc-diffusion test); type: cell-based; conditions: in vitro
SMILES,ED50 (C. albicans [1]),MIC (C. albicans [2])
CCCCCOc1ccc(-c2ccc(-c3ccc(C(=O)NC4CC(O)C(OCC(=O)O)NC(=O)C5C(O)C(C)CN5C(=O)C(C(C)O)NC(=O)C(C(O)C(O)c5ccc(O)cc5)NC(=O)C5CC(O)CN5C(=O)C(C(C)O)NC4=O)cc3)cc2)cc1 (stereo not shown) [Example 7],1.38 mg/kg,0.039 µg/mL
CCCCCOc1ccc(-c2ccc(-c3ccc(C(=O)NC4CC(O)C(OCCN(C)C)NC(=O)C5C(O)C(C)CN5C(=O)C(C(C)O)NC(=O)C(C(O)C(O)c5ccc(O)cc5)NC(=O)C5CC(O)CN5C(=O)C(C(C)O)NC4=O)cc3)cc2)cc1 (stereo not shown) [Example 14],0.312 mg/kg,0.156 µg/mL
CCCCCOc1ccc(-c2ccc(-c3ccc(C(=O)NC4CC(O)C(OCCN)NC(=O)C5C(O)C(C)CN5C(=O)C(C(C)O)NC(=O)C(C(O)C(O)c5ccc(O)cc5)NC(=O)C5CC(O)CN5C(=O)C(C(C)O)NC4=O)cc3)cc2)cc1 (stereo not shown) [Example 9],0.312 mg/kg,0.020 µg/mL
CCCCCOc1ccc(-c2ccc(-c3ccc(C(=O)NC4CC(O)C(OC)NC(=O)C5C(O)C(C)CN5C(=O)C(C(C)O)NC(=O)C(C(O)C(O)c5ccc(O)cc5)NC(=O)C5CC(O)CN5C(=O)C(C(C)O)NC4=O)cc3)cc2)cc1 (stereo not shown) [Example 8],0.99 mg/kg,0.005 µg/mL
CCCCCOc1ccc(-c2ccc(-c3ccc(C(=O)NC4CC(O)C(OCCN5CCCC5)NC(=O)C5C(O)C(C)CN5C(=O)C(C(C)O)NC(=O)C(C(O)C(O)c5ccc(O)cc5)NC(=O)C5CC(O)CN5C(=O)C(C(C)O)NC4=O)cc3)cc2)cc1 (stereo not shown) [Example 15],0.34 mg/kg,
CC(O)C1NC(=O)C(NC(=O)c2ccc(-c3ccc(C#Cc4ccccc4)cc3)cc2)CC(O)C(OCC(O)CO)NC(=O)C2C(O)C(C)CN2C(=O)C(C(C)O)NC(=O)C(C(O)C(O)c2ccc(O)cc2)NC(=O)C2CC(O)CN2C1=O (stereo not shown) [Example 2B],,0.039 µg/mL
